Hit rate of the full screen: of about 150,000 compounds, about 540 (0.36%) showed an effect of 50% or more. The list shows a part of the results.
Test system: Plasmodium falciparum
Assay: Primary screen in NF54 nanoGlo assay, in single point, at 2uM, 72h; a lower Z score goes with more inhibition
Assay type: functional, Erythrocyte
Details: timepoint 72 hour

Row | Structure (SMILES) | % Inhibition | Z score
1 | Clc1cccc(CN2CCOC[C@H](Oc3cccnc3)C2)c1 | -11% | 1.45
2 | Cc1nnsc1C(=O)NCc1cccc(CN2CCC(C)CC2)c1 | 8% | -1.08
3 | Cc1c(C)n(Cc2ccccc2)c2ncnc(N3CCN(C(=O)CN4CCOCC4)CC3)c12 | -22% | 2.63
4 | COCc1nnc2n1CCN(c1nc(C)c(C#N)cc1Cl)C2 | -9% | 1.3
5 | CCNc1ccnc(N2C[C@H]3CC[C@@H](C2)N(Cc2c(C)noc2C)C3=O)n1 | -7% | 0.68
6 | Cc1ccc(OCC(=O)N(Cc2cccc(Cl)c2)[C@H]2CCS(=O)(=O)C2)cc1C | -6% | 0.5
7 | Cc1ccc(-c2ccno2)cc1S(=O)(=O)NCc1cc2n(n1)CCNC2 | -7% | 0.97
8 | CC(=O)Nc1nc(CN2CC(N3CCCC3)CC2C(C)C)cs1 (stereo unspecified) | 14% | -2.73
9 | Cc1ccc(S(=O)(=O)N2C[C@@H](C(N)=O)[C@H](C3CCN(C)CC3)C2)cc1Cl | -14% | 1.93
10 | COC(=O)CNC1CCCCC1CO (stereo unspecified) | -3% | 0.34
11 | Cc1ccc(-c2nnc(-c3nn(C)c4c3CN(S(=O)(=O)c3cc(F)ccc3F)CC4)o2)cc1 | -25% | 2.17
12 | N#Cc1ccsc1C(=O)N1CCC2(CCCCC2)C1 | 34% | -3.88
13 | CC(=O)Nc1ccn([C@H](NC(=O)c2ccccc2)C(Cl)(Cl)Cl)c(=O)n1 | -8% | 0.95
14 | Cc1ccnc(N2CCN(c3ccc(N)nc3)CC2)c1C#N | -16% | 1.66
15 | CC(=O)Nc1cccc(-c2nc3ncncc3[nH]c2=O)c1 | 6% | -0.72
16 | c1ccc(Oc2ccc(CN3CCc4nc[nH]c4C34CCOCC4)nn2)cc1 | -6% | 0.96
17 | CCNc1nc(C(=O)N[C@@H](CC)CC#N)cs1 | 4% | -0.59
18 | Cc1nn(-c2ccccc2)c(Oc2ccc(Cl)cc2)c1CN(C[C@H]1CCCO1)C(=O)C1CCC1 | 5% | -0.66
19 | COCCCNC(=O)[C@]1(C)Cn2nc(-c3ccccc3)cc2C(=O)N1Cc1cccc(OC)c1 | -2% | 0.38
20 | O=C(NC[C@]12CCC[C@H]1C2)c1ccn(CCn2cccn2)n1 | -9% | 1.27
21 | CCC(=O)N1CCN(CC(OC)OC)CC1 | -3% | 0.32

Row | Structure (SMILES) | % Inhibition | Z score
22 | C[C@H]1CCCN(C(=O)NCC(C)(C)C(N)=O)CC1 | 4% | -0.82
23 | Cc1cc(C)c2c(C(=O)N[C@@H](C)Cc3ccncc3)cc(-c3cnn(C)c3)nc2c1 | 9% | -1.1
24 | Cc1ccc(-c2cc(O)cc(CC[C@H]3CCCCN3)c2)c(C)n1 | 61% | -8.76
25 | Cc1ccc(Cl)cc1S(=O)(=O)N1Cc2cncnc2C1 | 0% | -0.04
26 | O=C(COCC(F)(F)F)NC1CCCCC1n1cccn1 (stereo unspecified) | 3% | -0.42
27 | O=C(Nc1cn[nH]c1)C1CCN(S(=O)(=O)c2ccc3c(c2)CCC3)CC1 | 5% | -0.84
28 | CC(C)(C)CN1C[C@]23C=C[C@H](O2)C(C(=O)N2CCc4n[nH]cc4C2)C3C1=O (stereo partly specified) | 2% | -0.29
29 | Cn1cc(CNC(=O)N2CCN3CCOC[C@@H]3C2)c(C(F)(F)F)n1 | -18% | 1.53
30 | Nc1nc(CCCNCc2cnc(N3CCCCC3)nc2)cs1 | 2% | -0.3
31 | CCN1CC(=O)N[C@H]2CN(C(=O)Cc3c(C)noc3C)CC[C@@H]2OCc2cccc(c2)Oc2cccc(c2)CC1=O | -1% | 0.13
32 | COc1ccc(OC(F)F)c(CN2CCCO[C@@H](CN)C2)c1 | -5% | 0.87
33 | C[C@H](NCc1c2c(nn1C)CCCC2)c1cccc(OC(F)F)c1 | 5% | -0.68
34 | Cn1nc(C(F)(F)F)cc1NC(=O)N1C2CCC1CC1(CC1)C2 | 5% | -0.86
35 | CN(CCCNC(=O)CCCC1CC1)c1ccccn1 | -4% | 0.4
36 | CO[C@@H]1CN[C@@H](C(=O)NC(C)c2cnn(Cc3ccccc3)c2)C1 (stereo partly specified) | -11% | 1.29
37 | Cc1ncn(Cc2cncc(F)c2)c1C | -1% | 0.16
38 | Cc1ccc(N2CCCN(Cc3ccc(OC(F)(F)F)cc3)C2=O)c(NC(=O)OCc2ccccc2)c1 | 15% | -2.88
39 | O=C(c1ccco1)N1CCN(C[C@H](O)c2ccco2)CC1 | -4% | 0.64
40 | CCNC(=O)CN(CC)C(=O)COc1ccc(Cl)c(Cl)c1 | -8% | 1.04
41 | CCc1oc(C(=O)O)cc1CN1CCOC[C@H]1c1ccc(OC)cc1 | -2% | 0.32
42 | CC[C@@H](Cn1ccnc1)NC(=O)CN1CCOC1=O | -7% | 1.24

Row | Structure (SMILES) | % Inhibition | Z score
43 | CCNc1ncnc2sc(C(=O)N3CCC[C@H](C)C3)c(C)c12 | 5% | -0.93
44 | O=C([C@H]1C[C@@H]1C1CC1)N1CCC2(CCOCC2)C1 | -12% | 2.34
45 | CC(C)(NC(=O)c1cc(C(F)(F)F)ccc1Cl)C(=O)O | -9% | 1.26
46 | Cc1c(C2CCCCC2)noc1NS(=O)(=O)c1ccc(Cl)s1 | 2% | -0.33
47 | CN1CCCC(CNC(=O)c2cnsn2)C1c1cccs1 (stereo unspecified) | 8% | -1.25
48 | COc1ccc(-c2nc(OC)cc(OC)n2)cn1 | -7% | 1.05
49 | O=C(c1cccc[n+]1[O-])N1CCC[C@H](C(F)(F)F)C1 | 0% | 0.02
50 | Cc1ccc(NC(=O)c2nc(-n3ccnc3)ncc2Br)c(C)c1 | 6% | -0.77
51 | O=S(=O)(NCc1nnc2cc(C(F)(F)F)ccn12)C1CC1 | 10% | -1.24
52 | O=C1NCCCCCN(Cc2cccnc2)[C@@H]2CN(C(=O)NC3CCCCC3)CC[C@@H]12 | 7% | -0.92
53 | COCCOCC(=O)N1CCC[C@H](c2cccc(C)c2)C1 | -7% | 1.32
54 | O=C(Cc1cccs1)NC[C@H](O)c1cccs1 | -7% | 1.17
55 | O=C(Nc1nc2ccccc2[nH]1)c1ccc2ccccc2c1 | -7% | 0.7
56 | O=C(NC(C1CC1)C1CC1)[C@H]1CCCN(C2CCN(Cc3cccnc3)CC2)C1 | 1% | -0.09
57 | CC[C@@H](C(=O)NCc1ccccn1)N1C(=O)CCn2nc(C)cc21 | -1% | 0.16
58 | CC(=O)N1c2cc(S(=O)(=O)NCc3ccc4c(c3)OCO4)c(Br)cc2C[C@@H]1C | 3% | -0.52
59 | COC(=O)[C@]1(C)C[C@H](C(=O)NCC2CC2)[C@H](c2ccccc2Cl)N1C | -6% | 0.83
60 | Cc1ccc(S(=O)(=O)N2C[C@@H](C(=O)NCc3ccc(Cl)cc3)Oc3cc(C)ccc32)cc1 | -10% | 1.47
61 | CC(C)(C)c1noc(CS(=O)(=O)Cc2cccc3ccccc23)n1 | -5% | 0.82
62 | Cc1cnc(C(=O)N2CCC[C@H]2c2cccs2)cn1 | 5% | -0.6
63 | O=C(NCC1CCN(S(=O)(=O)[C@H]2CCS(=O)(=O)C2)CC1)C1CCCC1 | -1% | 0.07

Row | Structure (SMILES) | % Inhibition | Z score
64 | COCC1(NC(=O)[C@H](C)n2cnc3c(N)ncnc32)CC1 | -6% | 0.71
65 | Cc1nc(CCN(C)C(=O)[C@H](C)n2ccnc2C)no1 | -22% | 2.4
66 | O=C(NCCCNc1ncccn1)NCC(F)(F)F | -2% | 0.43
67 | O=C(CN1N=C(c2ccccc2)c2ccccc2S1(=O)=O)NCc1ccc(F)cc1 | 15% | -1.89
68 | Cc1n[nH]c([C@@H]2CN(C(=O)C(C)C)CCCN2Cc2ccccc2)n1 | -4% | 0.71
69 | Cc1sc(NC(=O)C2CCC(C(=O)O)NC2)nc1-c1cccc(Cl)c1 (stereo unspecified) | -2% | 0.35
70 | Cc1nc(CN2CCc3[nH]nc(-c4ccc(-c5ccccc5)cc4)c3C2)c[nH]1 | -1% | 0.16
71 | Cc1cccc(NC(=O)Cn2cnc(-c3noc(-c4cccc(F)c4)n3)c2)c1 | -8% | 1.12
72 | c1ccc(-c2nc3nccc(-c4ccc5c(c4)OCO5)n3n2)cc1 | -15% | 2.13
73 | c1ccc(-c2nc(CNc3nc(C4CC4)no3)cs2)nc1 | -12% | 1.52
74 | CCN1CCN(C2CCN(C(=O)C3CCN(c4nc(C)c5cc(C(C)C)ccc5n4)CC3)CC2)CC1 | -2% | 0.25
75 | COCCn1cc(NC(=O)N2CCCCCCC2)cn1 | 3% | -0.45
76 | Cc1cc(C)n(Cc2c(C(=O)N3CC[C@H](Cc4nnc(CC(C)C)o4)C3)noc2C)n1 | -6% | 0.8
77 | C=CCC(O)(CC=C)[C@H](C)NC(=O)c1ccnnc1 | -13% | 1.37
78 | COCc1nccc(N2CCC[C@@](O)(c3ccc(Cl)cc3)C2)n1 | -1% | 0.2
79 | CCC(CC)C1CC(NC(=O)c2c(C)nn(C)c2Cl)CCO1 (stereo unspecified) | -15% | 2.71
80 | CCOC1(CNC(=O)c2coc(COC)n2)CCCC1 | -13% | 1.34
81 | Cc1c(CNC(=O)Nc2cnn([C@@H](C)C3CC3)c2)cnn1C | 0% | 0.03
82 | CC(C)c1scnc1NC(=O)[C@@H]1CCCCC(=O)N1 | -9% | 0.95
83 | Cc1cc(C(=O)N2CCc3cc4ccc3[C@@H]2c2cccc(c2)OCCCNC(=O)c2cc(ccc2O)O4)n(C)n1 | -11% | 1.41
